This note sets out measurements from paper PMC7819943, “Rice protein-binding microarrays: a tool to detect cis-acting elements near promoter regions in rice”.

The other results are listed elsewhere or left out.

For this experiment, the target named is T1, OsWOX13 (Oryza sativa, UniProt Q5QMM3 1-267).
T1 sequence: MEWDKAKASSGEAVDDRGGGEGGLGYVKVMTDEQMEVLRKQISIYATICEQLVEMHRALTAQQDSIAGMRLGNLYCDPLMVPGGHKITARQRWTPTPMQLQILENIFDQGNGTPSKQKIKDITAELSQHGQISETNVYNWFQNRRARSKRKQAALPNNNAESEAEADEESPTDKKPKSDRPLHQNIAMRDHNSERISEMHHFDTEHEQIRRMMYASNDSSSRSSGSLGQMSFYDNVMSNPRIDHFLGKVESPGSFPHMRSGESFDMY
The experiment is described as follows: protein-binding microarray (RPBM); PBS, 2% BSA, 51.3 ng/ul salmon testes DNA, 50 uM zinc acetate, 200 nM TF, 25 C, 1 h; high values mean tight binding. The settings on record: protein: recombinant; tags: N-terminal polyhistidine and DsRed monomer fusion (pET32a); label: CyDye5-dUTP incorporated in the synthesized complementary strand; 3' TTTTT single-stranded linker to array surface; dsDNA, one strand shown. The essentials:
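Binding signal is defined as the fluorescence intensity of each feature in arbitrary units, read on an Axon 4000B scanner. Transcription factors with N-terminal polyhistidine and DsRed fusions came from E. coli BL21-CodonPlus and were purified on Ni–NTA. They were incubated at 200 nM for 1 h at 25 °C on a custom Agilent array that had been made double-stranded with Cy5-dUTP, with 50 µM zinc acetate present, and the array was washed.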
As to “TATACGATTGGAAACATCACGGACTCTTTACTGTCAGTTTCGGAGTCACCTAGTGCAG”, the binding signal was 3340 fluorescence intensity (a.u.). For “GCTAAATTAAATCTGCTCGCCATTTTCGAATTTATTCAGACGGAGTCACCTAGTGCAG”, the binding signal is 10800 fluorescence intensity (a.u.). The figure for “ATTAATTTGTAACTTTTATAATTTTAGATCACATTTCGCACGGAGTCACCTAGTGCAG” is 35700 fluorescence intensity (a.u.).

For “GTCATGTGATTGATGATTCAGCATCCCTTGAGGCTCAGTGCGGAGTCACCTAGTGCAG”, the binding signal is 53600 fluorescence intensity (a.u.).

Regarding “ATCATTGTGTAATTAGGCTCAAAAGATTTGTCTCGCGATTCGGAGTCACCTAGTGCAG”, the binding signal is 3750 fluorescence intensity (a.u.). The figure for “GCTTTGATGATGCACTCATCACCTTCACACGTCGGATCTACGGAGTCACCTAGTGCAG” is 4220 fluorescence intensity (a.u.); for “TGATTAACAGCAACCATAGACGGGACAGGCCAGCCCACCACGGAGTCACCTAGTGCAG” it is 3260 fluorescence intensity (a.u.). Take “CACACTAACATAATTGAAAACTTGTATCTTACCCAAACCGCGGAGTCACCTAGTGCAG”: the binding signal is 27000 fluorescence intensity (a.u.). Take “CAAATTAACTGGAAATTTTGAAGCATCCATGTTCTGTGAGCGGAGTCACCTAGTGCAG”: the binding signal was 46600 fluorescence intensity (a.u.). The figure for “TGCAGAGCACCAATCAATCCTTCCTCCCAGCCAAGATCTTCGGAGTCACCTAGTGCAG” is 6820 fluorescence intensity (a.u.); for “TTCAAATTGATGTTAATGGAAATGGAGGAAGTAGTACTGTCGGAGTCACCTAGTGCAG” it is 51000 fluorescence intensity (a.u.). With “TATAGTCATTAATTAATTAGTCCATATATATATAGTACATCGGAGTCACCTAGTGCAG”, the binding signal is 20000 fluorescence intensity (a.u.). With “AATTAGATTAATATGTTATGTTTCTGTCCACTGCTAGAGACGGAGTCACCTAGTGCAG”, the binding signal was 21300 fluorescence intensity (a.u.). The value for “TTCGATTGGTGTGGATTGAGATGAGATGAGATGACTCGTGCGGAGTCACCTAGTGCAG” was 22400 fluorescence intensity (a.u.); that for “TCTCAATCAGCGGGACAGTAAGTAAATCCACATCAACAGCCGGAGTCACCTAGTGCAG” was 14600 fluorescence intensity (a.u.); that for “ATACCGATCAATCAGTTCCTAAAAGATTTGTACTCTACAGCGGAGTCACCTAGTGCAG” was 13100 fluorescence intensity (a.u.). Turning to “GTCTTCCGTCCCTTTCCCTCCTCACTTCAACCCTTCAATCCGGAGTCACCTAGTGCAG”, the binding signal is 3260 fluorescence intensity (a.u.). Take “GTGGTGAATAGATAGATAGTGCGCGCTTCGGCCGGTCCCCCGGAGTCACCTAGTGCAG”: the binding signal is 4850 fluorescence intensity (a.u.). The value for “TTAATCTGATTAACGTGCATGCACATATATACGAGCTGTGCGGAGTCACCTAGTGCAG” was 15800 fluorescence intensity (a.u.). The value for “TGAGCATAATTACGCCATGATTTGACAATATTATGCTACACGGAGTCACCTAGTGCAG” was 28100 fluorescence intensity (a.u.); that for “GAATATGTAATAGATCATGATTTGGATATTACGTTTCCTTCGGAGTCACCTAGTGCAG” was 8270 fluorescence intensity (a.u.); that for “AAGAGTTTAAATTTTAAAATGATTTTATAAGTGGTTAACCCGGAGTCACCTAGTGCAG” was 7500 fluorescence intensity (a.u.). The value for “CTTAAACTTGACTGCAGCAGTAGTGAGCCCTTGGAGGATGCGGAGTCACCTAGTGCAG” was 7230 fluorescence intensity (a.u.). “AGTCAAATTGCACCGGTTTTAATAGTTAGGGGTCCAGACACGGAGTCACCTAGTGCAG”: the binding signal is 3570 fluorescence intensity (a.u.). The figure for “GCAGGTGATGAGATGAATTACCTTTTAACAATGTCGAGCACGGAGTCACCTAGTGCAG” is 6200 fluorescence intensity (a.u.); for “TGGATTGATTCCCGGTTTCTTATTGTCTATATCATGAGTACGGAGTCACCTAGTGCAG” it is 26800 fluorescence intensity (a.u.); for “GACCAATCAGGAGACGAGGCCGGCGCCGTTTTCTTTTCCCCGGAGTCACCTAGTGCAG” it is 5750 fluorescence intensity (a.u.). On to “GCTTAATTACATGGGAGAGGCTTTGTTTCTTGTTTATTTTCGGAGTCACCTAGTGCAG”, for which the binding signal is 18000 fluorescence intensity (a.u.). Take “GTCATGATTTGACAATGTGGTGCTACAGTAAACATTTGCTCGGAGTCACCTAGTGCAG”: the binding signal was 33600 fluorescence intensity (a.u.).

For the sequence “TAATAGATAGATAGATAGATAGATAGATTAGTAATTTAGACGGAGTCACCTAGTGCAG”, the binding signal is 30600 fluorescence intensity (a.u.). The value for “GATGATTGACGACAAGCCGATTGCCTTTCCCTTATCTGAACGGAGTCACCTAGTGCAG” was 44500 fluorescence intensity (a.u.); that for “CTTATTCCTTGATTTGTTCACCCCAAGGTCCAAATCACATCGGAGTCACCTAGTGCAG” was 7140 fluorescence intensity (a.u.); that for “TTCAAATTTTAAAATTTTATTTCTTAATACGCTCGTATGGCGGAGTCACCTAGTGCAG” was 21800 fluorescence intensity (a.u.). The figure for “ATCGTGATTTGAAGTCTCCAAATCTTCTAGTTGACAAGAACGGAGTCACCTAGTGCAG” is 26900 fluorescence intensity (a.u.); for “CAGGCAGCTGCACCATAAGCTCAGTTGCAGCTTTTATATACGGAGTCACCTAGTGCAG” it is 6390 fluorescence intensity (a.u.); for “CTGTAATTTTGTGAAAATTTACTTTTATTCTGGGGTGGAGCGGAGTCACCTAGTGCAG” it is 18700 fluorescence intensity (a.u.). The figure for “TTCCTCTGTTAATAACCAATTAATTCGTGATCAGCTCATCCGGAGTCACCTAGTGCAG” is 29200 fluorescence intensity (a.u.). For “ATTTTAGTGATTAATTTAATTGGAAAAGTAAATTAAATTCCGGAGTCACCTAGTGCAG”, the binding signal is 20500 fluorescence intensity (a.u.). The figure for “GCTAAACTGTTTCAAGATCCTATACATGATCCATCCCACACGGAGTCACCTAGTGCAG” is 3460 fluorescence intensity (a.u.); for “TCCACTAATATTAACCAATAGACAGATATACTATCACAGTCGGAGTCACCTAGTGCAG” it is 10800 fluorescence intensity (a.u.); for “GTCGTAATTGGTTAAGATGAAAGAGTAAGTAAAGAAATTACGGAGTCACCTAGTGCAG” it is 10800 fluorescence intensity (a.u.). The figure for “GTTTCTAATTAACTAAATTAATTAATTAGCATGATTGGTCCGGAGTCACCTAGTGCAG” is 64700 fluorescence intensity (a.u.).
